29 compounds from the antibiotic and cytotoxicity screens of Wong et al. (2023) can be followed below.

Experiment [1] has as its system HSkMC (human skeletal muscle cells). Put plainly: cytotoxicity call (relative viability < 0.9). Conditions: 10 µM.
In experiment [2] the test system is HepG2. Description: cytotoxicity call (relative viability < 0.9). Conditions: 10 µM.
The subject of experiment [3] is S. aureus RN4220. Put plainly: growth inhibition call (relative growth <= 0.2). Conditions: 50 µM.

Each structure is given as a SMILES string. The list shows a part of the results.

Regarding `COCC(=O)N(C)C[C@H]1Oc2cc(-c3ccc(C#N)cc3)ccc2S(=O)(=O)N([C@@H](C)CO)C[C@@H]1C`, the cytotoxicity call in experiment [1] and in experiment [2] was “inactive” throughout. The growth inhibition call in experiment [3] is “inactive”.

For `C[C@@H]1CN([C@H](C)CO)C(=O)c2cccc(NS(=O)(=O)c3ccc(Cl)cc3)c2O[C@@H]1CN(C)C(=O)Nc1ccc(C(F)(F)F)cc1`, the cytotoxicity call in experiment [1] and in experiment [2] was “active” each time. Further, in experiment [3], the growth inhibition call was “inactive”.

Turning to `COc1ccc(NC(=O)N(C)C[C@@H]2OCCCC[C@@H](C)Oc3ccc(NC(=O)Nc4ccc(C(F)(F)F)cc4)cc3C(=O)N([C@@H](C)CO)C[C@@H]2C)cc1`, the cytotoxicity call in experiment [1] and in experiment [2] was “inactive” throughout. In experiment [3], the growth inhibition call is “inactive”.

Regarding `C[C@H]1CN([C@@H](C)CO)C(=O)Cc2cc(NC(=O)c3ccncc3)ccc2O[C@@H]1CN(C)Cc1ccc2c(c1)OCO2`, the cytotoxicity call in experiment [1] and in experiment [2] was “inactive” throughout. Besides, in experiment [3], the growth inhibition call was “inactive”.

Consider `C[C@@H]1CN([C@H](C)CO)C(=O)CCCn2cc(nn2)CO[C@H]1CN(C)C(=O)Nc1cccc2ccccc12`, for which the cytotoxicity call in experiment [1] and in experiment [2] was “inactive” throughout. Moreover, the growth inhibition call in experiment [3] is “inactive”.

Regarding `C[C@@H]1CN([C@@H](C)CO)C(=O)c2cc(NS(=O)(=O)c3cn(C)cn3)ccc2O[C@@H](C)CCCCO[C@@H]1CN(C)S(=O)(=O)c1cccs1`, the cytotoxicity call in experiment [1] and in experiment [2] was “inactive” in each case. The growth inhibition call in experiment [3] is “inactive”.

Regarding `COc1ccc(S(=O)(=O)N(C)C[C@@H]2Oc3ccc(NC(=O)Cn4cnnn4)cc3CC(=O)N([C@@H](C)CO)C[C@@H]2C)cc1`, the cytotoxicity call in experiment [1] and in experiment [2] was “inactive” throughout. Moreover, the growth inhibition call in experiment [3] is “inactive”.

`COCC(=O)N(C)C[C@@H]1Oc2cc(C#Cc3cccnc3)ccc2S(=O)(=O)N([C@H](C)CO)C[C@H]1C`: the cytotoxicity call in experiment [1] and in experiment [2] was “inactive” throughout. The growth inhibition call in experiment [3] is “inactive”.

Consider `CC(C)NC(=O)Nc1ccc2c(c1)C(=O)N([C@@H](C)CO)C[C@@H](C)[C@H](CN(C)S(=O)(=O)c1cccs1)O2`, for which the cytotoxicity call in experiment [1] and in experiment [2] was “inactive” in each case. The growth inhibition call in experiment [3] is “inactive”.

`Cc1nnc(N)s1`: the cytotoxicity call in experiment [1] and in experiment [2] was “inactive” throughout. For the same compound, the growth inhibition call in experiment [3] is “inactive”.

Take `CCNC(=O)C[C@H]1C=C[C@H](NC(=O)C2CCOCC2)[C@@H](CO)O1`: the cytotoxicity call in experiment [1] and in experiment [2] was “inactive” each time. Further, the growth inhibition call in experiment [3] is “inactive”.

Take `CN1C(=O)c2cc(NS(=O)(=O)CC(F)(F)F)ccc2OC[C@H]2O[C@@H](CC(=O)NCC3CCCCC3)CC[C@@H]21`: the cytotoxicity call in experiment [1] and in experiment [2] was “inactive” throughout. The growth inhibition call in experiment [3] is “inactive”.

`COc1ccc(NC(=O)Nc2ccc3c(c2)C(=O)N([C@H](C)CO)C[C@@H](C)[C@H](CN(C)CC2CCCCC2)O3)cc1`: the cytotoxicity call in experiment [1] and in experiment [2] was “inactive” throughout. The growth inhibition call in experiment [3] was “inactive”.

On to `COc1c(Cl)c(C)c(C(=O)Oc2cc(C)c(C(=O)O)c(O)c2)c(O)c1Cl`, for which the cytotoxicity call in experiment [1] and in experiment [2] was “inactive” throughout. The growth inhibition call in experiment [3] is “inactive”.

`C[C@@H]1CN([C@H](C)CO)C(=O)Cc2cc(NC(=O)Cn3cnnn3)ccc2O[C@@H]1CN(C)Cc1ccc(C(=O)O)cc1`: the cytotoxicity call in experiment [1] and in experiment [2] was “inactive” in each case. Further, the growth inhibition call in experiment [3] was “inactive”.

As to `Cc1noc(C)c1NC(=O)N(C)C[C@@H]1OCCCC[C@@H](C)Oc2ccc(NS(=O)(=O)c3ccccc3)cc2C(=O)N([C@@H](C)CO)C[C@H]1C`, the cytotoxicity call in experiment [1] and in experiment [2] was “inactive” each time. Besides, the growth inhibition call in experiment [3] was “inactive”.

With `C[C@H]1CN([C@@H](C)CO)C(=O)c2cccc(NC(=O)c3ccncc3)c2O[C@@H]1CN(C)S(=O)(=O)c1ccccc1`, the cytotoxicity call in experiment [1] and in experiment [2] was “inactive” each time. The growth inhibition call in experiment [3] is “inactive”.

For the compound `CCO[C@H]1[C@H]2CC[C@@H]1N(C(=O)CS(C)(=O)=O)CCO2`, the cytotoxicity call in experiment [1] and in experiment [2] was “inactive” each time. Besides, the growth inhibition call in experiment [3] is “inactive”.

For `CNC(=O)CN1CCOC[C@@]2(C1)CN(Cc1ccn(C)n1)CCO2`, the cytotoxicity call in experiment [1] and in experiment [2] was “inactive” throughout. Also, the growth inhibition call in experiment [3] is “inactive”.

For the compound `CC(C)NC(=O)Nc1ccc2c(c1)CC(=O)N([C@@H](C)CO)C[C@H](C)[C@H](CN(C)S(=O)(=O)c1ccc(Cl)cc1)O2`, the cytotoxicity call in experiment [1] and in experiment [2] was “inactive” each time. For the same compound, the growth inhibition call in experiment [3] was “inactive”.

On to `Cc1noc(C)c1NC(=O)Nc1ccc2c(c1)CC(=O)N([C@@H](C)CO)C[C@@H](C)[C@H](CN(C)S(=O)(=O)c1c(C)noc1C)O2`, for which the cytotoxicity call in experiment [1] and in experiment [2] was “inactive” in each case. Also, the growth inhibition call in experiment [3] was “inactive”.

Regarding `Cc1noc(C)c1S(=O)(=O)Nc1ccc2c(c1)C(=O)N([C@H](C)CO)C[C@H](C)[C@@H](CN(C)C(=O)Nc1ccc(F)cc1)OCCCC[C@@H](C)O2`, the cytotoxicity call in experiment [1] and in experiment [2] was “inactive” throughout. Also, the growth inhibition call in experiment [3] is “inactive”.

On to `C[C@@H]1CN([C@H](C)CO)C(=O)Cc2cc(NC(=O)C3CC3)ccc2O[C@@H]1CN(C)S(=O)(=O)c1cn(C)cn1`, for which the cytotoxicity call in experiment [1] and in experiment [2] was “inactive” in each case. Also, the growth inhibition call in experiment [3] was “inactive”.

Consider `COc1ccc(S(=O)(=O)Nc2ccc3c(c2)C(=O)N([C@@H](C)CO)C[C@@H](C)[C@H](CN(C)C(=O)CCC(F)(F)F)OCCCC[C@H](C)O3)cc1`, for which the cytotoxicity call in experiment [1] and in experiment [2] was “inactive” each time. The growth inhibition call in experiment [3] is “inactive”.

Regarding `C#CC1(OC(C)=O)CCC2C3CCC4=CC(OC(C)=O)CCC4C3CCC21C` (configuration not stated), the cytotoxicity call in experiment [1] is “inactive”. Besides, in experiment [2], the cytotoxicity call is “active”. For the same compound, the growth inhibition call in experiment [3] was “inactive”.

On to `C[C@@H]1CN([C@@H](C)CO)C(=O)c2cccc(NC(=O)NC3CCCCC3)c2O[C@H]1CN(C)Cc1ccc(Oc2ccccc2)cc1`, for which the cytotoxicity call in experiment [1] and in experiment [2] was “inactive” in each case. For the same compound, the growth inhibition call in experiment [3] is “inactive”.

For `C[C@@H]1CN([C@H](C)CO)C(=O)c2cc(NC(=O)NC3CCCCC3)ccc2O[C@@H](C)CCCCO[C@@H]1CN(C)C(=O)NC1CCCCC1`, the cytotoxicity call in experiment [1] and in experiment [2] was “inactive” in each case. The growth inhibition call in experiment [3] is “inactive”.

For `CO[C@@H]1CN(C)C(=O)c2cc(NC(=O)C3CCOCC3)ccc2OC[C@H](C)N(Cc2cccnc2)C[C@H]1C`, the cytotoxicity call in experiment [1] and in experiment [2] was “inactive” throughout. Further, the growth inhibition call in experiment [3] was “inactive”.

`C[C@H](CO)N1C[C@H](C)[C@@H](CN(C)S(=O)(=O)c2ccccc2)Oc2c(NS(=O)(=O)c3cccs3)cccc2C1=O`: the cytotoxicity call in experiment [1] and in experiment [2] was “inactive” throughout. In addition, the growth inhibition call in experiment [3] is “inactive”.
